This note sets out measurements from the supplement of paper PMC11369174, “Proteome-scale characterisation of motif-based interactome rewiring by disease mutations” (Molecular Systems Biology, 2024).

In this experiment the target is T1, ZMYND11_coiled-coil-MYND__Q15326_480_602.
T1 chain: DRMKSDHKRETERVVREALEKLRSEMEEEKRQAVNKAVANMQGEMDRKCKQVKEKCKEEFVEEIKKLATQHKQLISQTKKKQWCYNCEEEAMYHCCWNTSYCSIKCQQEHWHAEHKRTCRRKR
Kind of experiment: mutation enrichment score (mutant vs wild-type peptide binding to bait); baits are purified protein domains named by gene / domain / UniProt id / residues; peptides come from disordered regions of human proteins; higher = mutation enhances binding relative to wild type. As to conditions: wild-type window: ….

Setting [1] is: number of wild-type / mutant comparisons summed (bounds the score): 12, paper call: no_effect.

The list shows a part of the results. This is a noisy data set.

In the case of SKFFLPIKESATSTNRSQEEPSPSPPLLNPSTPQSTESQPT [L308P L308P], under setting [1], the mutation enrichment score was -1.
Same read-out and setting: to KIKKSTPAAGQPPHLTSAQDHDTISELASCLQRARELGARV [Q117H Q117H] belongs -0.77.
Regarding PLHPTPPPASTAAGMPSLQHSTPPGMTPPQPAAPTQPSTPV [T872S T872S], the mutation enrichment score (number of wild-type / mutant comparisons summed (bounds the score): 18, paper call: no_effect) came to 2.7.
For KDGRAAVPYPPTVADLQRMFLTPPSLEQHPAFSPVMNYKDG [P866L P866L], the mutation enrichment score under setting [1] was -1.
Regarding IPAGGITTDQQPPNLISESAIPTSLGATNPLMNDGSNSGNI [L551I L551I], the mutation enrichment score under setting [1] turned out to be 4.6.
Take MAAQVAAREARDFREAPTLRSTSGAGLEAVGAVELEEEEE [R20S R20S]: the mutation enrichment score (number of wild-type / mutant comparisons summed (bounds the score): 18, paper call: enhanced) turned out to be 6.
Regarding GFRLEEYLIGQSIGKGCSAAGYEATMPTLPQNLEVTKSTGL [V170G V170G], the mutation enrichment score under setting [1] was 3.2.
